# Assay results taken from PubChem BioAssay AID624296 (National Center for Advancing Translational Sciences (NCATS), 2012).
# Values joined by “and” are separate entries in the source; they are usually repeats but may differ in a detail not shown here. Identical values can stand only once. Hit rate of the full screen: of about 350,000 compounds, about 9,900 (2.8%) were called active. This list was built around the results that the source calls inconclusive (neither active nor inactive); the mix of calls is not that of the screen. The call rests on the fitted dose curve; in most records, active means well fitted activation curve with a large enough effect; inconclusive means small, poorly fitted or top-dose-only effect; inactive means no such curve, though single readings can be large or run the other way. Potencies of inconclusive entries are doubtful fits and often do not repeat.
# Experiment: A quantitative high throughput screen for small molecules that induce DNA re-replication in MCF 10a normal breast cells. Further: nearly all actives have a fitted effect of over 50% in size. On activity, positive = re-replication: % of control where 0% means no effect.
# Details: MCF 10A DNA re-replication, Hoechst nuclear intensity, 48 h; activity, positive = re-replication: at 46.1 µM (top of the series)
# Potency means the concentration at half of the fitted maximal effect; tags describe the fitted curve by direction and shape.
SMILES,Potency,"activity, positive = re-replication"
Cc1cc(C)cc(NC(=O)NC2CCCCCCC2)c1,"inconclusive: 20.6 µM [activator, single point]",–
CCC(C)N=C1Sc2nc3ccc(C)cc3cc2CN1CCOC (stereo unspecified),"inconclusive: 16.4 µM [activator, single point]",–
O=C(Cc1cccc(C(F)(F)F)c1)Nc1ccc(S(=O)(=O)N2CCCC2)cc1,"inconclusive: 25.9 µM [activator, single point]",–
O=C(NNC(=O)c1ccccc1O)c1ccc(NS(=O)(=O)c2ccc(F)cc2)cc1,–,inactive: 11.1%
CCOC(=O)CC(=O)CSc1nc2c(cc1C#N)CCCCCC2,"inconclusive: 20.6 µM [activator, single point]",–
COc1ccc(-c2nnc(OCc3ccccc3)c3ccccc23)cc1,–,inactive: 2.82%
OC(CN1CCCCC1)Cn1c2ccccc2c2ccccc21 (stereo unspecified),–,inactive: -0.25%
CCOC(=O)c1ccc(NC(=S)Nc2ccccn2)cc1,–,inactive: 0.0152%
CC(=O)Nc1ccc(OC(=O)c2ccccc2OC(C)=O)cc1,–,inactive: 4.61%
O=C(Nc1ccc2nc3n(c(=O)c2c1)CCCCC3)C(=O)N1CCN(c2ccccc2)CC1,–,inactive: 20.3%
CCN(CC(=O)NCc1ccc(Cl)cc1)C(=O)c1cccc(S(=O)(=O)Nc2ccc(OC)cc2)c1,–,inactive: 8.94%
NS(=O)(=O)c1cccc(NC(=O)COC(=O)/C=C/c2nc3ccccc3s2)c1,"inconclusive: 18.4 µM [activator, single point]",–
Cc1c(C(=O)OCC(C)(C)CN(C)C)oc2ccccc12,"inconclusive: 13 µM [activator, partial curve, poor fit]",–
COc1ccc(-c2ccc([C@H]3[C@H]4C=CC[C@@H](C)[C@@H]4C(=O)N3Cc3ccccc3)c(F)c2)cc1C,"inconclusive: 10.3 µM [activator, partial curve, poor fit]",–
CCOC(=O)C1=CN(Cc2ccco2)S(=O)(=O)NC1c1cccc(OC)c1 (stereo unspecified),"inconclusive: 20.6 µM [activator, single point]",–
Cc1ccc2nc(NC(=O)CCNS(=O)(=O)c3ccc(Br)s3)sc2c1,"inconclusive: 29.1 µM [activator, single point]",–
CC(=O)Oc1ccc(C(=O)Nc2ccc(S(=O)(=O)N3CCOCC3)cc2)cc1,"inconclusive: 2.06 µM [activator, partial curve, poor fit]",–
COc1ccc(NC(=S)Nc2ccccc2F)c(OC)c1,"inconclusive: 32.6 µM [activator, partial curve, poor fit]",–
CCn1c2ccccc2c2cc(NC(=O)C(C)C)ccc21,–,inactive: -5.51%
CNC(=S)N1CCN(CCNC2=CC(=O)CC(C)(C)C2)CC1,"inconclusive: 6.51 µM [activator, single point]",–
O=Cc1ccc2ccc3cccnc3c2n1,"inconclusive: 20.6 µM [activator, partial curve, poor fit]",–
COc1ccc(CN(C)S(=O)(=O)c2nnc(NC(=O)c3cccc(C)c3)s2)cc1OC,–,inactive: 17.5%
CCCC[C@@H]1CNC(=S)N1CCCc1cc(OC)c(OC)c(OC)c1,–,inactive: -0.878%
Brc1ccc2c(c1)CN1CCCC1=N2,"inconclusive: 20.6 µM [activator, partial curve, poor fit]",–

SMILES,Potency,"activity, positive = re-replication"
COc1ccc(NS(=O)(=O)c2cccc(C(=O)NC3CCN(Cc4ccccc4)CC3)c2)cc1,–,inactive: 16.1%
O=[N+]([O-])c1ccc(NC(=S)N2CCN(S(=O)(=O)c3ccccc3)CC2)cc1,"inconclusive: 11.6 µM [activator, partial curve, poor fit]",–
Cc1cc(C)c2nc(N(CCCN(C)C)C(=O)c3ccc4c(c3)CCCC4)sc2c1,"inconclusive: 29.1 µM [activator, single point]",–
O=C1/C(=C\c2cccnc2)CN(Cc2ccccc2)C/C1=C\c1cccnc1,"inconclusive: 1.16 µM [activator, full curve, poor fit]",–
N=C(SC1CC(=O)N(c2ccc(F)cc2)C1=O)N1N=C(c2ccccc2)CC1c1ccccc1 (stereo unspecified),–,inactive: -7.15%
Cc1cc(C#Cc2c(-c3ccccc3)n(C)c3ccccc23)ccc1F,active: 8.2 µM,–
COc1ccc(Nc2ccc3ccccc3c2)cc1,active: 23.1 µM,–
Cc1ccc(NC(=O)C(C)OC(=O)c2cc(=O)[nH]c3ccccc23)cc1S(=O)(=O)N1CCOCC1 (stereo unspecified),–,inactive: -0.0581%
COc1cc(C2C3=C(COC3=O)Oc3cc4c(cc32)OCO4)cc(OC)c1OC(C)=O (stereo unspecified),"inconclusive: 0.116 µM [activator, full curve, poor fit]",–
CCOC(=O)N1CCC(NC(=O)CN(c2ccc(C(C)C)cc2)S(=O)(=O)c2c(C)nn(C)c2C)CC1,–,inactive: 6.34%
O=C(CN1CCNC(=O)C1)NCCc1ccc(Cl)cc1Cl,–,inactive: -35.1%
COc1cc(/C=C/C(=O)Nc2nc3ccc(S(=O)(=O)N(C)C)cc3s2)cc(OC)c1OC,"inconclusive: 9.2 µM [activator, partial curve]",–
CCCCc1ccc(NC(=S)N2CCN(c3ccccn3)CC2)cc1,–,inactive: 17.1%
CC(C)NCC(O)COc1ccc(CCOCC2CC2)cc1 (stereo unspecified),"inconclusive: 5.8 µM [activator, partial curve, poor fit]",–
CN1CCN(CCCNC(=O)c2ccc(/C=C3\Oc4ccccc4N(Cc4ccc(Cl)cc4)C3=O)cc2)CC1,"inconclusive: 1.84 µM [activator, partial curve, poor fit]",–
COc1cc(Cl)c(C)cc1NC(=O)c1ccccc1NC(=O)CN1CCOCC1,–,inactive: 2.19%
CCOC(=O)N1CCN(Cc2nc3ccc([N+](=O)[O-])cc3c(=O)n2-c2ccc(OC)cc2OC)CC1,"inconclusive: 29.1 µM [activator, single point]",–
CC(C)C(c1nnnn1C1CCCCC1)N1CCOCC1 (stereo unspecified),"inconclusive: 5.17 µM [activator, partial curve, poor fit]",–
COc1cc([C@H]2c3cc4c(cc3[C@@H](O[C@H]3O[C@H]5CO[C@@H](C)O[C@H]5[C@@H](O)[C@@H]3O)[C@@H]3COC(=O)[C@H]23)OCO4)cc(OC)c1O,"inconclusive: 9.44 µM [activator, partial curve]",–
CC(=O)Nc1ccccc1OCC(=O)c1cc(C)n(Cc2cccs2)c1C,–,inactive: 13.8%
Clc1ccc2c(N/N=C/c3cccc(Br)c3)ccnc2c1,"inconclusive: 29.1 µM [activator, single point]",–
CCn1c(C)cc(/C=C2\NC(=O)N(Cc3ccc(Cl)cc3)C2=O)c1C,"inconclusive: 22.4 µM [activator, single point]",–
COc1cc(-n2c(-c3ccccc3)n[nH]c2=S)c(OC)cc1Cl,–,inactive: -6.57%
CCOC(=O)C1(Cc2cccc(OC)c2)CCN(Cc2ccc(OC)c(OC)c2)CC1,"inconclusive: 14.6 µM [activator, partial curve, poor fit]",–

SMILES,Potency,"activity, positive = re-replication"
Cc1cccc(NC(=S)NNC(=O)c2csc3c2CCC(C)C3)c1 (stereo unspecified),"inconclusive: 32.6 µM [activator, partial curve, poor fit]",–
CC(C)C[C@H]1CNC(=S)N1CC1CCN(CC2CCCC2)CC1,"inconclusive: 1.84 µM [activator, partial curve, poor fit]",–
CCOc1ccc(NC(=O)CN2C(=O)NC(C)(c3ccc(OC(F)F)cc3)C2=O)cc1 (stereo unspecified),–,inactive: 16.6%
CC[C@@]1(c2cccc(C)c2)C(=O)N(C(=O)OC)N1C(=O)OC,"inconclusive: 23.1 µM [activator, single point]",–
CN(C)/C=N/C(=S)Nc1ccc(Cl)c(Cl)c1,–,inactive: 8.57%
CCc1nc(N)nc(N)c1-c1ccc(Cl)c(N=[N+]=[N-])c1,"inconclusive: 3.26 µM [activator, full curve] and inconclusive: 5.17 µM [activator, partial curve]",–
CN1/C(=C/C(=S)NC(=O)C2CCC2)C(C)(C)c2ccccc21,"inconclusive: 23.1 µM [activator, single point]",–
Cc1cccc(N=C2NN=C(c3ccc4c(c3)OCCO4)CS2)c1,"inconclusive: 8.2 µM [activator, partial curve]",–
Cc1ccc(OCCSCc2nc3ccccc3[nH]2)cc1,"inconclusive: 29.1 µM [activator, single point]",–
CC1Cc2cc(/C=C3/SC(=S)N(C)C3=O)ccc2O1 (stereo unspecified),–,inactive: -1.97%
CCCCN(C(=O)c1cc(S(=O)(=O)N2CCCCCC2)ccc1OC)c1c(N)n(CCC)c(=O)[nH]c1=O,–,inactive: 2.38%
COc1ccccc1NC(=S)N(Cc1ccco1)Cc1cc2cc(C)ccc2[nH]c1=O,"inconclusive: 11.6 µM [activator, partial curve, poor fit]",–
O=C(O)c1cccc(S(=O)(=O)N(Cc2ccccc2)c2ccccc2)c1,"inconclusive: 23.1 µM [activator, single point]",–
COc1ccc(NC(=O)C2CCCNC2=O)cc1 (stereo unspecified),–,inactive: -7.32%
COc1cc(NC(=O)CN(C)C2CCCCC2)c(C)cc1[N+](=O)[O-],–,inactive: 67.1%
Cc1[nH]c2c(Cl)cccc2c(=O)c1CN1CCCCCC1,–,inactive: 2.02%
NC(=NCCc1c[nH]c2ccccc12)NC(=O)c1ccc(F)cc1,–,inactive: 0%
CCN(CC(=O)Nc1ccc(NC(C)=O)cc1)C(=O)COc1ccc2ccccc2c1,–,inactive: -1.1%
COc1ccccc1OCC(=O)NCCS(=O)(=O)N1CCN(c2ccccc2)CC1,–,inactive: 4.15%
Cc1cccc(CNc2ncnc3ccc(-c4ccoc4)cc23)c1,active: 2.59 µM,–
Cc1ccccc1NC(=O)OCc1cccnc1Oc1ccc(Cl)cc1,"inconclusive: 32.6 µM [activator, single point]",–
Cc1c(C(=O)NN2CCCCC2)nn(-c2ccc(Cl)cc2Cl)c1-c1ccc(Cl)cc1,active: 13.3 µM,–
COc1ccc(NC(=O)CN(C)C(=O)c2cc(-c3ccccc3)nc3ccccc23)cc1,"inconclusive: 25.9 µM [activator, partial curve, poor fit]",–
